Variants at the floor of the assay are shown more often than the library holds them.
B1: TPR 5TU (parent)
chain: GGAUCUUCUCGAUCUAACAAAAAAGACAAAUCUGCCACAAAGCUUGAGAGCAUCUUCGGAUGCAGAGGCGGCAGCCUUCGGUGGCGCGAUAGCGCCAACGUUCUCAACUAUGACACGCAAAACGCGUGCUCCGUUGAAUGGAGUUUAUCAUG

Variants of: B1
Test: polymerase ribozyme fitness, log enrichment relative to wild type (log ratio); higher = more active; in vitro selection for triplet polymerase activity
How it was run: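 For each subunit of a heterodimeric triplet polymerase ribozyme, a mutant library was built by PCR and transcribed, then taken through a single in vitro selection round in triplicate. Selection involved annealing to a biotinylated primer, the partner subunit and triplets, incubation frozen at −7 °C, gel excision of extended constructs, capture on streptavidin beads and RT-PCR. Genotypes were retained after Illumina sequencing of inputs and outputs only with ≥10 input reads and ≥1 read in each output. Fitness is defined as the logarithm of a genotype's enrichment relative to wild-type enrichment, using inverse-variance-weighted averages across replicates, with the logarithm taken to base 2.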

Polymerase ribozyme fitness (log ratio), ≤ -4.2:
GGAUCUUCUCGAUCUAACAAAAAAGGCAAAUCUGCCACAAAGCUUGAGAGCAUCUUCGGAUGCAGAGGCUGCAGCCUUCGGUGGCGCGAUAGCGCAAACGUUCUCAACUAUGACACGCAAAACGCGUGUUCCGUUGAAUGGAGUUUAUCAUG [A26G G70U C96A C129U]
GGAUCUUCUCGAUCUAACAAAAAAGGCAAAUCUGCCACAAAGCUUGAGAGCAUCUUCGGAUGCAGAGGCGGCAGCCUUCGGUGGCGCGAUAGCGCCAACGUUCUCAACUAUGACACGCAAAACGCGUGCUCCGUUGAAUAGAAUUUAUCAUG [A26G G140A G143A]
GGAUCUUCUCGAUCUAACAAAAAAGGCAAAUCUGCCACAAAGCUUGAGAACAUCUUCGGAUGCAGAGGCGGCAGCCUUCGUUGGCGCGAUAGCGCCAAUGUUCUCAACUAUGACACGCAAAACGCGUGCUCCGUUGAAUGGAGUUUAUCAUG [A26G G50A G81U C99U]
GGAUCUUCUCGAUCUAACAAAAAAGUCAAUUCUGACACAAAGCUUGAGAGCAUCUUCGGAUGCAGAGGCGGCAGCCUUCGCUGGCGGGAUGGCGCCAACGUUCUCAACUAUGACACGCAAAACGCGUGCUCCGUUGAAUGGACUUUAUCAUG [A26U A30U C35A G81C C87G A91G G143C]
GGAUCUUCUCGAUCUAACAAAAAAGGCAAAUCUGCCACAAAGCUUGAGAGCAUCUUCGGAUCCAGAGGCGGCAGCCGUCGGUGGCGCGAUAGCGCUAACGUUCUCAACUAUGACACGUAAAACGCGUGCUCCGUUGAAUGGAGUUUAUCAUG [A26G G62C U77G C96U C118U]
GGAUCUUCUCGAUCUAACAAAAAAGGAAAAUCUGCCACAAAGCUUGAGAGCAUCUUCGGAUGCAGAGGCGGCAGCCUUCGGUGGCGGGAUAGCGCCAACGGUCUCAACUAUGACACGCAAAACGCGUGCUCCCUUGAAUGGAGUUUAUCAUG [A26G C27A C87G U101G G133C]
GGAUCUUCUCGAUCUAACAAAAAAGGCAAAUCUGUCACAAAGCUUGAGAGCAUCUUCGGAUGCAGAGGCGGCAGCCUUCGGUGGCGCGAUAGCGUCAACGUUCUCGACUAUGACACGCAAAACGCGUGCUCCGUUGAAUGGAGUUUAGCAUG [A26G C35U C95U A106G U148G]
GGAUCUUCUCGAUCUAACAAAAAAGGCAAAUCUGCCACAAAGCUUGAGAGCAUCUUCGGAUGCAGAGGCGGCAGCCUUCGGUGGCGCGAUAGAGCCAACGUUCUCAACUAUGACACGCAAAACGCGUGCUCCGUUGAAUGGAGUUUAUCAUG [A26G C93A]
GGAUCUUCUCGAUCUAACAAAAAAGUCAUAUCUGCCACAAAGCUUGAGAGCAUCUUCGGAUGCAGAGGCGGCAGCUUUCGGUGGCGCGAUAGCGCCUACGUUCUCAACUAUGACACGCAAAACGCGUGCUCCGUUGAAUGGAGUUUAUCAUG [A26U A29U C76U A97U]
GGAUCUUCUCGAUCUAACAAAAAAGGCAAAUCUGCCACAAAGCUUGAGAGCAUCUUCGGAUGCAGAGGCGGCAGCCUUCGGUUGCACGAUAGCGCCAUCGUUCUCAACUAUGACACGCAAAACGCGUGCUCCGUUGAAUGUAGUUUAUCAUG [A26G G83U G86A A98U G141U]
GGAUCUUCUCGAUCUAACAAAAAAGGCAAAUCUGCCACAAAGCUUGAGAGCAUCUUCCAAUGCAGGGGCGGCAGCCUUCGGUGGCGCGAUCGCGCCAACGUUGUAAACUAUGACACGCAAAACGCGUGCUCCGUUGAAUGGAGUUUAUCAUG [A26G G58C G59A A66G A91C C103G C105A]
GGAUCUUCUCGAUCUAACAAAAAAGGCAAAUCUGUCACAAAGCUUGAGAGCAUCUACGGAUGCAGAGGCGGCAGCCUUCGGUGGCGCGAUAGCGCCAACGUUCUCAACUAUGACACGCAAAACGCGUGCUCCGUUGAAUGGAGUUUAUCAUG [A26G C35U U56A]
GGAUCUUCUCGAUCUAACAAAAAAGGCAAAUCUGCCACAAAGCUUGAGAGCAUCUUCGGAUGCAGAGGCGGCAGCCUUCGAUGGCGCGAUAGCGCCUACGUUCUCAACUAUGACACGCAAAACGCGUGCUCCGUUGAAUGGAGUUUAUCAUG [A26G G81A A97U]
GGAUCUUCUCGAUCUAACAAAAAAGGCAAAUCUGCCACAAAGCUUGAGAGCAUCUUCGGAUGCAGAGGCGGCAGCCUUCGGUGGCGCGAUAGGGCCGAUGUUAUCAACUAUGACACGCAAAACGCGUGCUCCGUUGAAUGGAGUUCAUCAUG [A26G C93G A97G C99U C103A U146C]
GGAUCUUCUCGAUCUAACAAAAAAGGCAAAGCUGCCACAAAGCUUGAGAGCAUCAUCGGAUGCAGAGGCGGCAGCCUUCGGUAGCGCGAUAGCGUCAACGUUCUCAACUAUGACACGCAAAACGCGUGCUCCGUUGAAUGGAGUUUAUCAUG [A26G U31G U55A G83A C95U]
GGAUCUUCUCGAUCUAACAAAAAAGGGAAAUCUGCCACAAAGCUUGAGAGCAUCUUCGGAUGCAGAGGCGGCAGCCUUCGGUGGCGGGAUAGCGCCAAAGUUCUCAACUAUGACACGCAAAACGCGUGCUCCGUUGAAUGGAGUUUAUCAUG [A26G C27G C87G C99A]
GGAUCUUCUCGAUCUAACAAAAAAGGCAAAUCUGCCACAAAGCGUGCGCGCAUCUUCGGAUGCAGAGGCGGGAGCGUUCGGUGGCGCGAUCGCGCCAACGUUGUGAACUAUGACACGCAAAACGCGUGCUCCGUUGAAUGGAGUUUAUCAUG [A26G U44G A47C A49C C72G C76G A91C C103G C105G]
GGAUCUUCUCGAUCUAACAAAAAAGUCAGAUCUGCCACAAAGCUUGAGAGCAUCUUCGGAUGCAGAGGCGGCAGCCUUCGGUGGCGCGAUCGCGCCAACGUUCUCAACUAUGACACGCAAAACGCGUGCUCCGUUCAAUGGAGUGUAUCAUG [A26U A29G A91C G136C U145G]
GGAUCUUCUCGAUCUAACAAAAAAGGCAAAUCUGCCACAAAGCAUGAGAGCAUCUUCGGAUGCAGAGGCGACAGCCUUCGGUGGCCCGAUAGCGCCAACGUUCUCAACUAUGACACGCAAAACGCGUGCUCCGUUGAAUGGAGUUUAUCAUG [A26G U44A G71A G86C]

Source: the RNAGym collection of RNA variant scans (doi:10.1073/pnas.2313332121)
